Assay results: the supplement of paper PMC4967469

Tests used:
Test in all cases: Viability of human cancer cell lines after 72 h of drug (GDSC screen)
[1] = compound: CN(C)C/C=C/C(=O)Nc1cc2c(Nc3ccc(F)c(Cl)c3)ncnc2cc1O[C@H]1CCOC1 [Afatinib]
Method: (§1)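 Human cancer cell lines in 384-well plates, medium with 10% serum, drug for 72 h over a 256-fold dose range (nine 2-fold or five 4-fold steps up to the top dose). Adherent lines were fixed and stained with the nucleic acid dye Syto60, suspension lines read with resazurin; signal relative to control wells, capped at 0 and 100%. One two-parameter sigmoid per drug and line, fitted in a mixed model over all curves with the slope shared within a line.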

[2] = compound: CN(c1ncccc1CNc1nc(Nc2ccc3c(c2)CC(=O)N3)ncc1C(F)(F)F)S(C)(=O)=O [PF-562271]; settings: top dose 2.56 µM; top dose inferred
Method: as §1

[3] = compound: CC1(C)CC(=O)c2c(C(F)(F)F)nn(-c3ccc(C(N)=O)c(N[C@H]4CC[C@H](O)CC4)c3)c2C1 [SNX-2112]; settings: top dose 2.56 µM
Method: as §1

[4] = compound: O=C(NC1CC1)c1cccc(-c2ccc3c(NC(=O)C4CC4)n[nH]c3c2)c1 [XMD13-2]; settings: top dose 10.24 µM; top dose inferred
Method: as §1

[5] = top dose 10 µM, screen: GDSC drug entry 1377, top dose inferred
[6] = top dose 0.5 µM, screen: GDSC drug entry 1032

Row | Cell Line | AUC [1, 5] | IC50 [1, 5] [µM] | AUC [2] | IC50 [2] [µM] | AUC [3] | IC50 [3] [µM] | AUC [4] | IC50 [4] [µM] | AUC [1, 6] | IC50 [1, 6] [µM]
1 | H2804 (mesothelioma, adherent) | 0.984 | > 10 | 0.922 | > 2.56 | 0.962 | > 2.56 | 0.976 | > 10.2 | – | –
2 | NCI-H838 (lung adenocarcinoma, adherent) | 0.97 | > 10 | 0.901 | > 2.56 | 0.605 | 0.314 | 0.976 | > 10.2 | 0.985 | > 0.5
3 | CAL-54 (kidney, adherent) | 0.878 | > 10 | 0.95 | > 2.56 | 0.934 | > 2.56 | 0.973 | > 10.2 | – | –
4 | H2818 (mesothelioma, adherent) | 0.976 | > 10 | 0.986 | > 2.56 | 0.953 | > 2.56 | 0.988 | > 10.2 | – | –
5 | U031 (kidney, adherent) | 0.884 | > 10 | 0.948 | > 2.56 | 0.962 | > 2.56 | 0.945 | > 10.2 | – | –
6 | TGBC24TKB (biliary tract, adherent) | 0.751 | 3.11 | 0.964 | > 2.56 | 0.921 | > 2.56 | 0.99 | > 10.2 | – | –
7 | SU-DHL-10 (B-cell lymphoma, suspension) | 0.998 | > 10 | 0.9 | 1.58 | 0.17 | 0.0251 | 0.92 | 7.32 | – | –
8 | OSC-20 (head and neck, adherent) | 0.865 | > 10 | 0.91 | > 2.56 | 0.462 | 0.123 | 0.934 | > 10.2 | 0.929 | > 0.5
9 | GAMG (glioma, adherent) | 0.948 | > 10 | 0.931 | > 2.56 | 0.297 | 0.0415 | 0.801 | 5.27 | – | –
10 | KP-4 (pancreas, adherent) | 0.986 | > 10 | 0.887 | > 2.56 | 0.681 | 0.501 | 0.855 | 7.67 | – | –
11 | NCI-H522 (lung adenocarcinoma, adherent) | 0.848 | 9.65 | 0.949 | > 2.56 | 0.714 | 0.729 | 0.934 | > 10.2 | – | –
12 | HLE (liver, adherent) | 0.987 | > 10 | 0.943 | > 2.56 | 0.376 | 0.0744 | 0.989 | > 10.2 | – | –
13 | NCI-H1573 (lung adenocarcinoma, adherent) | 0.978 | > 10 | 0.991 | > 2.56 | 0.857 | 1.98 | 0.99 | > 10.2 | – | –
14 | BPH-1 (prostate, adherent) | 0.407 | 0.339 | 0.758 | 0.976 | 0.386 | 0.0752 | 0.615 | 1.38 | – | –
15 | MFH-ino (soft tissue, adherent) | 0.962 | > 10 | 0.868 | > 2.56 | 0.52 | 0.183 | 0.969 | > 10.2 | 0.945 | > 0.5
16 | Farage (B-cell lymphoma, suspension) | 0.992 | > 10 | 0.956 | > 2.56 | 0.224 | 0.0306 | 0.8 | 3.95 | 0.965 | > 0.5
17 | T-24 (bladder, adherent) | 0.972 | > 10 | 0.928 | > 2.56 | 0.869 | 2.18 | 0.952 | > 10.2 | – | –
18 | COLO-829 (melanoma, adherent) | 0.933 | > 10 | 0.725 | 0.963 | 0.904 | > 2.56 | 0.958 | > 10.2 | – | –
19 | JAR (urogenital system, adherent) | 0.963 | > 10 | 0.982 | > 2.56 | 0.811 | 1.33 | 0.927 | > 10.2 | – | –
20 | BT-483 (breast, adherent) | 0.975 | > 10 | 0.967 | > 2.56 | 0.879 | > 2.56 | 0.966 | > 10.2 | 0.973 | > 0.5
21 | LB996-RCC (kidney, adherent) | 0.783 | 4.96 | 0.962 | > 2.56 | 0.576 | 0.267 | 0.981 | > 10.2 | – | –
22 | MDA-MB-157 (breast, adherent) | 0.967 | > 10 | 0.987 | > 2.56 | 0.983 | > 2.56 | 0.979 | > 10.2 | – | –
23 | SW837 (large intestine, adherent) | 0.84 | > 10 | 0.976 | > 2.56 | 0.636 | 0.431 | 0.936 | > 10.2 | – | –
24 | RD (rhabdomyosarcoma, adherent) | 0.95 | > 10 | 0.887 | > 2.56 | 0.428 | 0.0994 | 0.89 | > 10.2 | – | –
25 | Hs-445 (Hodgkin lymphoma, suspension) | 0.985 | > 10 | 0.963 | > 2.56 | 0.276 | 0.0392 | 0.847 | 6.71 | – | –
26 | MDA-MB-468 (breast, adherent) | 0.856 | 7.56 | 0.874 | 2.34 | 0.496 | 0.156 | 0.871 | 9.02 | 0.844 | 0.337
27 | MFE-319 (endometrium, adherent) | 0.835 | 6.3 | 0.873 | 2.34 | 0.864 | 2.13 | 0.938 | > 10.2 | – | –
28 | BFTC-909 (kidney, adherent) | 0.9 | > 10 | 0.977 | > 2.56 | 0.83 | 1.56 | 0.988 | > 10.2 | – | –
29 | NCI-H23 (lung adenocarcinoma, adherent) | 0.975 | > 10 | 0.982 | > 2.56 | 0.758 | 0.883 | 0.982 | > 10.2 | 0.98 | > 0.5

IC50 is the fitted dose that halves viability relative to control wells, and lower means more sensitive; where the fit passes the top or lowest dose, that dose stands as a limit. AUC is the area under the same curve over the 256-fold range up to the top dose, as a fraction: 1 means no effect, lower means more sensitive. For part of these data: Any top dose called inferred is not printed in the source and was worked back from the curve model. For part of these data: Drugs with an entry number were screened twice under separate entries, and the two screens often disagree.
